{"source": "the supplement of paper PMC8728848", "test_in_all_cases": "glycan array binding signal (z-score within array); higher = stronger binding", "conditions_in_all_cases": "glycan notation: IUPAC condensed, linker removed", "key": {"[1]": {"target": "Gal(b1-4)GlcNAc(b1-3)Gal(b1-4)GlcNAc(b1-3)[Gal(b1-4)GlcNAc(b1-3)Gal(b1-4)GlcNAc(b1-6)]GalNAc", "summary_of_the_method": "(§1)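 Glycan array binding is given as a within-array Z-score, which can be read as non-binding when negative. The arrays, 3228 of them, came from the Consortium for Functional Glycomics database and were retained only where the protein sequence was available. Z-scores were averaged across arrays of the same protein sequence at different concentrations or buffers and across linkers.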"}, "[2]": {"target": "Gal(b1-4)GlcNAc(b1-3)Gal(b1-4)GlcNAc(b1-6)[Gal(b1-3)]GalNAc", "summary_of_the_method": "as §1"}, "[3]": {"target": "Gal(b1-4)GlcNAc(b1-3)Gal(b1-4)[Fuc(a1-3)]GlcNAc(b1-3)Gal(b1-4)[Fuc(a1-3)]GlcNAc", "summary_of_the_method": "as §1"}, "[4]": {"target": "Gal(b1-4)GlcNAc(b1-3)GalNAc", "summary_of_the_method": "as §1"}, "[5]": {"target": "Gal(b1-4)GlcNAc(b1-3)[Fuc(a1-3)GlcNAc(b1-6)]Gal(b1-4)Glc", "summary_of_the_method": "as §1"}, "[6]": {"target": "Gal(b1-4)GlcNAc(b1-3)[Gal(b1-4)GlcNAc(b1-6)]Gal(b1-4)GlcNAc", "summary_of_the_method": "as §1"}, "[7]": {"target": "Gal(b1-4)GlcNAc(b1-3)[GlcNAc(b1-6)]Gal(b1-4)GlcNAc", "summary_of_the_method": "as §1"}, "[8]": {"target": "Gal(b1-4)GlcNAc(b1-6)Gal(b1-4)GlcNAc", "summary_of_the_method": "as §1"}, "[9]": {"target": "Gal(b1-4)GlcNAc(b1-6)GalNAc", "summary_of_the_method": "as §1"}, "[10]": {"target": "Gal(b1-4)GlcNAc(b1-6)[Gal(b1-3)]GalNAc", "summary_of_the_method": "as §1"}, "[11]": {"target": "Gal(b1-4)GlcNAc(b1-6)[Gal(b1-4)GlcNAc(b1-3)]GalNAc", "summary_of_the_method": "as §1"}, "Gal(b1-4)GlcNAc6P": {"target": "Gal(b1-4)GlcNAc6P", "summary_of_the_method": "as §1"}, "Gal(b1-6)Gal": {"target": "Gal(b1-6)Gal", "summary_of_the_method": "as §1"}, "Gal3S(b1-3)GalNAc": {"target": "Gal3S(b1-3)GalNAc", "summary_of_the_method": "as §1"}, "Gal3S(b1-3)GlcNAc": {"target": "Gal3S(b1-3)GlcNAc", "summary_of_the_method": "as §1"}, "[12]": {"target": "Gal3S(b1-3)[Fuc(a1-4)]GlcNAc", "summary_of_the_method": "as §1"}, "Gal3S(b1-4)Glc": {"target": "Gal3S(b1-4)Glc", "summary_of_the_method": "as §1"}, "Gal3S(b1-4)Glc6S": {"target": "Gal3S(b1-4)Glc6S", "summary_of_the_method": "as §1"}, "Gal3S(b1-4)GlcNAc": {"target": "Gal3S(b1-4)GlcNAc", "summary_of_the_method": "as §1"}, "[13]": {"target": "Gal3S(b1-4)[Fuc(a1-3)]Glc6S", "summary_of_the_method": "as §1"}, "[14]": {"target": "Gal3S(b1-4)[Fuc(a1-3)]GlcNAc", "summary_of_the_method": "as §1"}, "[15]": {"target": "Gal3S(b1-4)[Fuc(a1-3)]GlcNAc6S", "summary_of_the_method": "as §1"}, "Gal3S4S(b1-4)GlcNAc": {"target": "Gal3S4S(b1-4)GlcNAc", "summary_of_the_method": "as §1"}, "Gal3S6S(b1-4)GlcNAc": {"target": "Gal3S6S(b1-4)GlcNAc", "summary_of_the_method": "as §1"}, "Gal3S6S(b1-4)GlcNAc6S": {"target": "Gal3S6S(b1-4)GlcNAc6S", "summary_of_the_method": "as §1"}, "Gal4S(b1-4)GlcNAc": {"target": "Gal4S(b1-4)GlcNAc", "summary_of_the_method": "as §1"}, "Gal4S6S(b1-4)GlcNAc": {"target": "Gal4S6S(b1-4)GlcNAc", "summary_of_the_method": "as §1"}, "Gal6P(b1-4)GlcNAc": {"target": "Gal6P(b1-4)GlcNAc", "summary_of_the_method": "as §1"}, "Gal6S(b1-3)GlcNAc": {"target": "Gal6S(b1-3)GlcNAc", "summary_of_the_method": "as §1"}, "Gal6S(b1-3)GlcNAc6S": {"target": "Gal6S(b1-3)GlcNAc6S", "summary_of_the_method": "as §1"}, "Gal6S(b1-4)Glc": {"target": "Gal6S(b1-4)Glc", "summary_of_the_method": "as §1"}, "Gal6S(b1-4)Glc6S": {"target": "Gal6S(b1-4)Glc6S", "summary_of_the_method": "as §1"}, "Gal6S(b1-4)GlcNAc": {"target": "Gal6S(b1-4)GlcNAc", "summary_of_the_method": "as §1"}, "Gal6S(b1-4)GlcNAc6S": {"target": "Gal6S(b1-4)GlcNAc6S", "summary_of_the_method": "as §1"}, "GalNAc(a1-3)Gal": {"target": "GalNAc(a1-3)Gal", "summary_of_the_method": "as §1"}, "GalNAc(a1-3)GalNAc": {"target": "GalNAc(a1-3)GalNAc", "summary_of_the_method": "as §1"}, "[16]": {"target": "GalNAc(a1-3)GalNAc(b1-3)Gal(a1-4)Gal(b1-4)Glc", "summary_of_the_method": "as §1"}, "[17]": {"target": "GalNAc(a1-3)GalNAc(b1-3)Gal(a1-4)Gal(b1-4)GlcNAc", "summary_of_the_method": "as §1"}, "GalNAc(b1-3)Gal": {"target": "GalNAc(b1-3)Gal", "summary_of_the_method": "as §1"}, "[18]": {"target": "GalNAc(b1-3)Gal(a1-4)Gal(b1-4)GlcNAc", "summary_of_the_method": "as §1"}, "[19]": {"target": "GalNAc(b1-3)Gal(a1-4)Gal(b1-4)GlcNAc(b1-3)Gal(b1-4)Glc", "summary_of_the_method": "as §1"}, "[20]": {"target": "GalNAc(b1-3)Gal(a1-6)Gal(b1-4)Glc", "summary_of_the_method": "as §1"}, "GalNAc(b1-3)GalNAc": {"target": "GalNAc(b1-3)GalNAc", "summary_of_the_method": "as §1"}, "GalNAc(b1-3)GlcNAc": {"target": "GalNAc(b1-3)GlcNAc", "summary_of_the_method": "as §1"}, "GalNAc(b1-4)Gal(b1-4)Glc": {"target": "GalNAc(b1-4)Gal(b1-4)Glc", "summary_of_the_method": "as §1"}}, "note": "Some of the results follow.", "data": [{"binder": "BTL (Bryothamnion triquetrum) (protein) ADPICGSSGYSCTTPAILTPKSPGSFPSGYSKVIVTGVGGSYSVYIHRPDGFKVYKASEGGCASFGSYSGGGNSEVGKYGSGGTVVAVACK", "values": [{"measurement": "glycan array binding signal (z-score)", "setting": "[1]", "result": -0.096}, {"measurement": "glycan array binding signal (z-score)", "setting": "[2]", "result": -0.128}, {"measurement": "glycan array binding signal (z-score)", "setting": "[3]", "result": -0.163}, {"measurement": "glycan array binding signal (z-score)", "setting": "[4]", "result": -0.188}, {"measurement": "glycan array binding signal (z-score)", "setting": "[5]", "result": -0.23}, {"measurement": "glycan array binding signal (z-score)", "setting": "[6]", "result": -0.235}, {"measurement": "glycan array binding signal (z-score)", "setting": "[7]", "result": -0.263}, {"measurement": "glycan array binding signal (z-score)", "setting": "[8]", "result": -0.221}, {"measurement": "glycan array binding signal (z-score)", "setting": "[9]", "result": -0.162}, {"measurement": "glycan array binding signal (z-score)", "setting": "[10]", "result": -0.252}, {"measurement": "glycan array binding signal (z-score)", "setting": "[11]", "result": -0.242}, {"measurement": "glycan array binding signal (z-score)", "setting": "Gal(b1-4)GlcNAc6P", "result": -0.154}, {"measurement": "glycan array binding signal (z-score)", "setting": "Gal(b1-6)Gal", "result": -0.25}, {"measurement": "glycan array binding signal (z-score)", "setting": "Gal3S(b1-3)GalNAc", "result": -0.283}, {"measurement": "glycan array binding signal (z-score)", "setting": "Gal3S(b1-3)GlcNAc", "result": -0.223}, {"measurement": "glycan array binding signal (z-score)", "setting": "[12]", "result": -0.256}, {"measurement": "glycan array binding signal (z-score)", "setting": "Gal3S(b1-4)Glc", "result": -0.168}, {"measurement": "glycan array binding signal (z-score)", "setting": "Gal3S(b1-4)Glc6S", "result": -0.219}, {"measurement": "glycan array binding signal (z-score)", "setting": "Gal3S(b1-4)GlcNAc", "result": -0.256}, {"measurement": "glycan array binding signal (z-score)", "setting": "[13]", "result": -0.128}, {"measurement": "glycan array binding signal (z-score)", "setting": "[14]", "result": -0.255}, {"measurement": "glycan array binding signal (z-score)", "setting": "[15]", "result": -0.239}, {"measurement": "glycan array binding signal (z-score)", "setting": "Gal3S4S(b1-4)GlcNAc", "result": -0.266}, {"measurement": "glycan array binding signal (z-score)", "setting": "Gal3S6S(b1-4)GlcNAc", "result": -0.237}, {"measurement": "glycan array binding signal (z-score)", "setting": "Gal3S6S(b1-4)GlcNAc6S", "result": -0.186}, {"measurement": "glycan array binding signal (z-score)", "setting": "Gal4S(b1-4)GlcNAc", "result": -0.304}, {"measurement": "glycan array binding signal (z-score)", "setting": "Gal4S6S(b1-4)GlcNAc", "result": -0.246}, {"measurement": "glycan array binding signal (z-score)", "setting": "Gal6P(b1-4)GlcNAc", "result": -0.224}, {"measurement": "glycan array binding signal (z-score)", "setting": "Gal6S(b1-3)GlcNAc", "result": -0.261}, {"measurement": "glycan array binding signal (z-score)", "setting": "Gal6S(b1-3)GlcNAc6S", "result": -0.24}, {"measurement": "glycan array binding signal (z-score)", "setting": "Gal6S(b1-4)Glc", "result": -0.248}, {"measurement": "glycan array binding signal (z-score)", "setting": "Gal6S(b1-4)Glc6S", "result": -0.18}, {"measurement": "glycan array binding signal (z-score)", "setting": "Gal6S(b1-4)GlcNAc", "result": -0.291}, {"measurement": "glycan array binding signal (z-score)", "setting": "Gal6S(b1-4)GlcNAc6S", "result": -0.228}, {"measurement": "glycan array binding signal (z-score)", "setting": "GalNAc(a1-3)Gal", "result": -0.226}, {"measurement": "glycan array binding signal (z-score)", "setting": "GalNAc(a1-3)GalNAc", "result": -0.245}, {"measurement": "glycan array binding signal (z-score)", "setting": "[16]", "result": -0.25}, {"measurement": "glycan array binding signal (z-score)", "setting": "[17]", "result": -0.245}, {"measurement": "glycan array binding signal (z-score)", "setting": "GalNAc(b1-3)Gal", "result": -0.249}, {"measurement": "glycan array binding signal (z-score)", "setting": "[18]", "result": -0.197}, {"measurement": "glycan array binding signal (z-score)", "setting": "[19]", "result": -0.226}, {"measurement": "glycan array binding signal (z-score)", "setting": "[20]", "result": -0.249}, {"measurement": "glycan array binding signal (z-score)", "setting": "GalNAc(b1-3)GalNAc", "result": -0.278}, {"measurement": "glycan array binding signal (z-score)", "setting": "GalNAc(b1-3)GlcNAc", "result": -0.266}, {"measurement": "glycan array binding signal (z-score)", "setting": "GalNAc(b1-4)Gal(b1-4)Glc", "result": -0.202}]}]}
